Tests used:
[1] = molecular target: T1, active hMMP-9(cat)_His6 (human, UniProt P14780 107-449); experiment: size exclusion chromatography of the mixture, peak shift
T1 construct: also called active human MMP-9 enzyme active domain; active human MMP-9; not shown: His tag (His6 by the construct's name)
Experimental: (§1) After the reaction, 10 μl of the reaction solution was analyzed by size exclusion chromatography. The chromatographic conditions were as follows.

[2] = molecular target: T2, hMMP-9(cat)_E402Q_His6 (human, UniProt P14780 107-449); experiment: as above
T2 construct: also called human MMP-9 enzyme active domain E402Q mutant; human MMP-9 E402Q mutant; not shown: His tag (His6 by the construct's name)
Experimental: as §1

binding result [1]: binds
binding result [2]: binds
B1: hTIMP-1 (other, human, UniProt P01033 24-207, looked up)
chain: CTCVPPHPQTAFCNSDLVIRAKFVGTPEVNQTTLYQRYEIKMTKMYKGFQALGDAADIRFVYTPAMESVCGYFHRSHNRSEEFLIAGKLQDGLLHITTCSFVAPWNSLSLAQRRGFTKTYTVGCEECTVFPCLSIPCKLQSGTHCLWTDQLLQGSEKGFQSRHLACLPREPGLCTWQSLRSQIA

From patent US20200231654A1 (Daiichi Sankyo, published 2020)
